Results on 14 molecules are retold here after article PMC12136788.

Some of the results follow.

B1: ENSG00000175216:stop:overlap|stop_codon|ENSG00000175216|stop_codon|NA|stop_codon (ssRNA)
RNA: GGGAGUUCUACAGUCCGACGAUCGAUGUGGUCUGGACAACACAAAGGUACUGCUCCUUUUCUUCUGUGCAGUUCAGGGAGGGUAGUCACAAGCAGGUCCGAGGCAGGCUGGCCCACAGAGAAGUGGCUUAGUCUUGCUGUAGUCAACAGAGGAUUGAGCAUCA
B2: chr1:17283265:17283432:+|3pUTR|ENSG00000142619|msi1|total|mutant (ssRNA)
RNA: GGGAGUUCUACAGUCCGACGAUCCAUGUGGUUCUCAGACUUGAAUCUUCUCGGCCCCCCAAAAAGAAGGACCUCAUUUCUUACCGCCUCUCCUGUGAUUCAACACAACCCAUGGAGAUGUCCCCUUCUCACUCUGAAAUCAUCCAACAGAGGAUUGAGCAUCA
B3: chr22:45843749:45843850:+|3pUTR|ENSG00000130638|msi1|total|mutant (ssRNA)
RNA: GGGAGUUCUACAGUCCGACGAUCAAAUUGCAAGUGUUUGAAGAUUUAUAAGUACAAAUUUGGGAACAUACAAAUCUUUCCGGCCGCCGAGUUUAACGUGUAUAAGCUAAAAGUGAAAGUAACUGAGUGUUCUCUUGUUUCUUUCAACAGAGGAUUGAGCAUCA
B4: chr1:160214333:160214525:+|3pUTR|ENSG00000162734|msi1|total|mutant (ssRNA)
RNA: GGGAGUUCUACAGUCCGACGAUCCUACAGUGUUUUCCUUUGCACCGAUCCCCACCCCAAUUCAAUCCCGGAAGGGACUUACUCCGGAAACCCUUCUUUACCCGAUAUCCUGGCCCCCUGGGCUUGUGAACACCUCCCCGCCACCAACAGAGGAUUGAGCAUCA
B5: chr2:212999690:213008084:-|three_prime_utr|ENSG00000030419|control|control|control (ssRNA)
RNA: GGGAGUUCUACAGUCCGACGAUCACAAUCGCUGAAGUGGCCCCAGUUAUAAGCUCAGCUUAUUCUCAGGUCUAUCAUCCAAAUAGGAUAGAAAGACCCAUUAGCAGGGAAACUGCUGAUAGUCAUGAAAACAACAUGGAUGGCCAACAGAGGAUUGAGCAUCA
B6: chr7:7234405:7234460:+|CDS|ENSG00000106392|msi1_unk|FALSE|overlapping (ssRNA)
RNA: GGGAGUUCUACAGUCCGACGAUCAAUUUUUUAACCUUCCUCUGUGGAUCAGCAAUAGGAUUUCUUUUAUGUUCUCAGCUAUUUAGUAUUUUGUUGGGAGAAAAGGUUGACACCCAGCCUAAUGUUCUUCAUAAUGAUCCUCAUCAACAGAGGAUUGAGCAUCA
B7: chr8:17644361:17644462:-|3pUTR|ENSG00000129422|msi1|FALSE|bound_elsewhere (ssRNA)
RNA: GGGAGUUCUACAGUCCGACGAUCCAACAUUGUGAUGUCAGUAUUUACUAAUCUACAUUCAGUGGCUGUACAAAUAACAGCUGUAGUAAGAAGAGAUUCAGGAUGCUAGAGGUGAAUAUUUGGGUCAUUUACAUGUACACUACACAACAGAGGAUUGAGCAUCA
B8: chr18:2547350:2547451:-|CDS|ENSG00000101574|unk|FALSE|unique (ssRNA)
RNA: GGGAGUUCUACAGUCCGACGAUCUAGACAGAAGCACCUACGUUUUAUAAAGGAAGAACUUUAUCCCUCUUGGUCUGUGGAGGUAGUUGCUGAGUGGCACUGGGUAAAAGUAAGUUCAGAAGUUAGCUUAUUUGUUAAUACAGCCAACAGAGGAUUGAGCAUCA
B9: chr15:67202635:67202736:-|3pUTR|ENSG00000103591|msi1|FALSE|unique (ssRNA)
RNA: GGGAGUUCUACAGUCCGACGAUCUGCCAAAAUUGCCCUUAUCAUGUUGGCUGCCUGACUUGUUUAUAGGGUCCCCUUAAUUUUAGUUUUUAGUAGGAGGUUAAGGAGAAAUCUUUUUUUUCCUCAGUAUAUUGUAAGAGAGUGCAACAGAGGAUUGAGCAUCA
B10: chr20:18487131:18487232:-|3pUTR|ENSG00000089050|msi1|total|mutant (ssRNA)
RNA: GGGAGUUCUACAGUCCGACGAUCAAAUACCGUAACCAGUAACCACAGCCCGCUGUAAAAUUGAAAAUUCAGUUCAGUCAAACCCGCCAUAUUUCAAGUGCUCAACAGCCACUGGUGGCUAUUGGUUACCUUACUGACCAGCCACAACAGAGGAUUGAGCAUCA
B11: chr15:52582156:52582307:-|CDS|ENSG00000047346|control|control|control (ssRNA)
RNA: GGGAGUUCUACAGUCCGACGAUCAAGAUCUACCUCCAUAGAGACGUACGGCUCCUGUUCUCUAGAAAGUCAAUGGAGGUUGAUAGCGGUGCUGCAUAUGAACUCAAAUCUUACACUGAAUCACCAACAAACCCUCAGUUUUCACAACAGAGGAUUGAGCAUCA
B12: chr1:54216159:54216271:+|CDS|ENSG00000116221|unk|total|mutant (ssRNA)
RNA: GGGAGUUCUACAGUCCGACGAUCCUUGGAGCAGCCCGUGGUGGUGCAGAGCGUGGGCACGGAUGGACGUGUCUUCCAUUUCCCCGUGUUUCAACUGAAUACCACAGACCUGGACUGUAACGAGGGUGUCAAGAAUUUGGCCUGCAACAGAGGAUUGAGCAUCA
B13: chr2:216674221:216674322:-|3pUTR|ENSG00000115461|msi1|total|mutant (ssRNA)
RNA: GGGAGUUCUACAGUCCGACGAUCGCAUGCCCCAUCUCUCUGCACAGCUGUCCCCUAAACCCAACUCACGUUUCUGUAUGUCUCCGGCCAGUAUCCCAAACCUCUUCCACGUCACUGUUCUUUCCACCCAUUCUCCCUUUGCAUCAACAGAGGAUUGAGCAUCA
B14: chr6:36925443:36925544:+|3pUTR|ENSG00000198663|msi1|total|mutant (ssRNA)
RNA: GGGAGUUCUACAGUCCGACGAUCGAGGCAUCCCGUGGGAAAGUCCCCUAAGUCCCAUUUUGUACUUCAACAAAAAAUGACUGCCGCAGAAGAUAAGUGGAGACUUUUAUGGAUAUACUACUCAUUUUACUUAAAAUCUACCCACAACAGAGGAUUGAGCAUCA

The target in the test is MSI1 full-length (mouse, UniProt Q61474 1-362). In words: nsRBNS (natural sequence RNA bind-n-seq); RBNS binding buffer (assumed for nsRBNS): 25 mM Tris pH 7.5, 150 mM KCl, 3 mM MgCl2, 0.01% Triton X-100, 500 ug/ml BSA, 20 U/ml SUPERase-In, 4 C; UNK is unkempt and MSI1 is Musashi-1; names of the RNAs are library labels; protein concentration not given here; high values mean tight binding.
Chain of UniProt Q61474 (Q61474 whole entry): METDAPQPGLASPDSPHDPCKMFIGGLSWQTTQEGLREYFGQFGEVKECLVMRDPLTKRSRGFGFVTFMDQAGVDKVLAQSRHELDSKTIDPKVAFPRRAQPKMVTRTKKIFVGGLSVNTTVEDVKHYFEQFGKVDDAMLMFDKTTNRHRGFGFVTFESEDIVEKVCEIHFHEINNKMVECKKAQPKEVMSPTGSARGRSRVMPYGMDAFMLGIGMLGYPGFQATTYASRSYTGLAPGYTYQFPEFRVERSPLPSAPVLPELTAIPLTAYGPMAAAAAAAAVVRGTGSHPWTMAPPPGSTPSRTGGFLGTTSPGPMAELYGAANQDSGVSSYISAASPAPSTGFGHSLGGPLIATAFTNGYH
In turn, B1 had a binding signal of 0.292 enrichment R.
Molecule B2 registered a binding signal of 0.387 enrichment R.
Then B3, with 0.458 enrichment R; and B4, with 0.883 enrichment R.
B5 showed a binding signal of 0.33 enrichment R.
The result for B6 reads 2.66 enrichment R.
The result for B7 reads 0.442 enrichment R; that for B8, 1.58 enrichment R; that for B9, 32.9 enrichment R.
In turn, B10 had a binding signal of 0.516 enrichment R.
The result for B11 reads 0.525 enrichment R; that for B12, 0.417 enrichment R; that for B13, 0.921 enrichment R.
Then B14, with 0.467 enrichment R.
